# In PubChem BioAssay AID686978 (National Center for Advancing Translational Sciences (NCATS), 2013):
# In all, about 420,000 compounds went through this assay and about 64,000 (15%) were called active. Inconclusive means that the source gave no clear call. Such entries were picked first, then a sample of the others. The call rests on the fitted dose curve; in most records, active means well fitted inhibition curve with a large enough effect; inconclusive means small, poorly fitted or top-dose-only effect; inactive means flat fitted curve, though single readings scatter. No potency is given beside an inconclusive call; the fits are too rough.
# Experiment: qHTS for Inhibitors of human tyrosyl-DNA phosphodiesterase 1 (TDP1): qHTS in cells in absence of CPT; further: nearly all actives have a fitted effect of over 55% in size
# Details: DT40 Tdp1-/- hTDP1 cells, no CPT, ATP luminescence, 48 h; activity change, negative = growth inhibition: at 46.2 µM (top of the series)
# Summary of the method: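 Seeded 400 DT40-hTDP1 cells/well (vehicle DMSO, no 20 nM CPT); pinned compounds; ≥48 hr at 37 °C; CellTiter-Glo luminescence as viability measure.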
# On the % scale 0 is the no-effect control and ±100 the full control effect; potency means the concentration at half of the fitted maximal effect; tags describe the fitted curve by direction and shape.
Compound,"activity change, negative = growth inhibition",Potency
CC(=O)N(Cc1ccccc1)C(CC(=O)NCc1ccccc1)C(=O)O (stereo unspecified),inactive: -19.8%,
O=C(NCc1ccco1)C(c1ccncc1)N(CCC1=CCCCC1)C(=O)Cn1nnc2ccccc21 (stereo unspecified),,"inconclusive [inhibitor, single point]"
COc1ccc(/C(N)=N/OC(=O)c2ccc3c(c2)OCO3)cc1OC,,"inconclusive [inhibitor, single point]"
COc1ccc(C(=O)N2CCN(Cc3nc(CC4CC4)no3)CC2)cc1,inactive: 0.325%,
N=C1N(c2ccccc2)C(=S)C(=Nc2ccccc2)N1c1ccccc1,,active: 13 µM
Clc1ccc(SCc2cn3cccnc3n2)cc1,inactive: -16.2%,
CC12CC3CC(C)(C1)CC(C(=O)NC(=S)N1CCCCC1)(C3)C2,,"inconclusive [inhibitor, single point]"
Cc1ccccc1NC(=O)CSc1nc2nccnc2c(=O)n1CCc1c[nH]c2ccccc12,,active: 11.6 µM
COc1ccc2c(C)c(CC(=O)N3CCN(C(=O)C4COc5ccccc5O4)CC3)c(=O)oc2c1C (stereo unspecified),,"inconclusive [inhibitor, single point]"
COc1cc(/C=C/C(=O)OCC(=O)N2CCc3ccccc3C2)ccc1O,,"inconclusive [inhibitor, single point]"
CC(C)Sc1nnc(SCC(=O)NCCCN2CCCC2=O)s1,inactive: -6.54%,
O=C(/C=C/c1ccccc1)NC(=S)NNC(=O)c1cccnc1,,active: 5.8 µM
COc1ccc(C(=O)N(Cc2ccco2)Cc2cccs2)c(OC)c1,,"inconclusive [inhibitor, partial curve]"
CCN(CC)C(=O)CCC(=O)Nc1ccc(C(=O)OC)cc1,inactive: 1.08%,
CN(Cc1ccccc1)S(=O)(=O)c1nnc(NC(=O)c2cccc(Cl)c2)s1,,active: 13 µM
Cc1nc(N2CCN(C(=O)c3ccco3)CC2)c2c3c(sc2n1)CC(C)CC3 (stereo unspecified),,active: 16.4 µM
CCOc1ccc(C(=O)Nc2ccc(NC(=O)c3cccs3)cc2)cc1[N+](=O)[O-],inactive: -2.31%,
CC(=O)c1ccc(NC(=O)c2ccc3c(=O)n4c(nc3c2)CCCCC4)cc1,,"inconclusive [inhibitor, partial curve]"
CCOc1ccc(N(CC)S(=O)(=O)c2cc(Br)cc3c2N(C(C)=O)C(C)C3)cc1 (stereo unspecified),,active: 7.31 µM
CC(C)CC(NC(N)=O)C(=O)Nc1cccc([N+](=O)[O-])c1 (stereo unspecified),inactive: -7.33%,
Cc1c(/C=N\NC(=O)C2COc3ccccc3O2)c2ccccc2n1C (stereo unspecified),,active: 0.92 µM
Cc1ccc(C)c(N2CCN(C(=O)C34CC5CC(C3)CC(n3nnc(C)n3)(C5)C4)CC2)c1,,active: 7.31 µM
Cc1cccc(NC(=O)CSc2nccn2Cc2ccc(F)cc2)c1C,inactive: -7%,
CCOC(=O)C1CCCN(C(=O)c2ccc(-c3ccc([N+](=O)[O-])cc3)o2)C1 (stereo unspecified),,active: 11.6 µM

Compound,"activity change, negative = growth inhibition",Potency
CC(C)=CCc1cc(-c2oc3cc(O)cc(O)c3c(=O)c2O)ccc1O,,"inconclusive [inhibitor, single point]"
Cc1ccc(C)c(N2CCN(C(C(=O)NC3CCCC3)c3ccco3)CC2)c1 (stereo unspecified),,active: 11.6 µM
CCCCN(C)CCCNC(=O)Cn1ncc2c3ccccc3n(Cc3ccccc3)c2c1=O,,"inconclusive [inhibitor, single point]"
Cc1cc(-c2nnc(CCC(=O)N3CCN(Cc4cccc(F)c4)CC3)o2)c(C)o1,inactive: -14%,
COc1ccc(NC(=O)Nc2ccc3nc([C@@H]4O[C@H](CO)[C@@H](O)[C@H](O)[C@H]4O)[nH]c3c2)cc1OC1CCCC1,inactive: -3.22%,
O=C(CC1CCCCC1)NCc1cn2ccsc2n1,inactive: -16.6%,
COc1ccc(N2CC(O)=C(c3nc4ccccc4s3)C2=N)c(OC)c1,,"inconclusive [inhibitor, single point]"
COc1cc(CC(=O)OCC(=O)NCC(C)C)cc(OC)c1OC,inactive: -3.8%,
CC(C)c1cc(C(=O)N2CCCC(N3CCN(c4ccc(F)cc4)CC3)C2)no1 (stereo unspecified),,"inconclusive [inhibitor, single point]"
COCc1nc2ccccc2n1CCOc1cccc(C)c1,,"inconclusive [inhibitor, single point]"
Cc1ccc(C2=NS(=O)(=O)N(C)C(C(=O)N(C)C3CCCCC3)=C2)cc1,inactive: -21.4%,
O=C(CN1N=C(c2ccc(Cl)cc2)CCC1=O)NCCc1ccc(Cl)cc1,,"inconclusive [inhibitor, single point]"
C[C@H](O)[C@@H]1C(=O)N2CCc3ccc(-c4ccccc4)cc3[C@@H]2C[C@@H]1N(C)C(=O)c1ccc(C#N)cc1,,"inconclusive [inhibitor, single point]"
CC1CN(c2ccc(S(=O)(=O)N3CCCC3)cn2)CC(C)O1 (stereo unspecified),inactive: 2.64%,
C#CCOCCOCCOCCNc1nc(N2CCN(C(=O)CCCCCCCCCCNC(=O)[C@H](CCCCN)n3cc(C)nn3)CC2)nc(N2CCN(C(=O)CCCCCCCCCCNC(=O)[C@H](CO)n3cc(CCCSC)nn3)CC2)n1,,"inconclusive [inhibitor, partial curve, poor fit]"
CC1CCCC(C)N1C(=O)COC(=O)C12CC3CC(CC(Cl)(C3)C1)C2 (stereo unspecified),,"inconclusive [inhibitor, single point]"
CCOC(=O)c1c(-c2ccccc2)oc2ccc(NS(=O)(=O)c3cc(C)c(C)cc3C)cc12,,active: 10.3 µM
CCOc1ccccc1CN1CCN(S(=O)(=O)c2ccccc2)CC1,,"inconclusive [inhibitor, single point]"
CCN(CC)S(=O)(=O)c1ccc(N2CCCC2)c(NS(=O)(=O)c2ccc(F)cc2)c1,,active: 14.6 µM
CCN(C[C@H]1N[C@@](CC)(C(=O)OC)[C@H]2C(=O)N(C)C(=O)[C@@H]12)C(=O)Nc1ccc(C(F)(F)F)cc1,,"inconclusive [inhibitor, partial curve]"
CCn1nc(C)c(Br)c1Nc1ccc(Br)cc1,inactive: -14.2%,
O=C(CSc1n[nH]c(=O)n1C1CC1)N1N=C(c2ccc(Cl)cc2)CC1c1ccco1 (stereo unspecified),,"inconclusive [inhibitor, single point]"
COc1ccccc1NC(=O)CSC1=Nc2ccccc2C2=NC(CC(=O)NCc3ccco3)C(=O)N12 (stereo unspecified),,"inconclusive [inhibitor, single point]"
COc1cc(OC)cc(C2=Cc3ccccc3C(CC(C)=O)N2c2ccc(C#CC3(N)CCCCC3)cc2)c1 (stereo unspecified),,"inconclusive [inhibitor, single point]"

Compound,"activity change, negative = growth inhibition",Potency
COc1ccc(C(NC(=O)C(C)C)c2c(O)ccc3ccccc23)cc1OC (stereo unspecified),inactive: 2.22%,
Cn1nnc(NC(=O)CSc2ncn[nH]2)n1,inactive: -0.455%,
CC(C)c1nc(SCC(=O)NCC2CCCO2)c2c(=O)n(C)c(=O)n(C)c2n1 (stereo unspecified),inactive: -22.5%,
Cc1cc(C)c(S(=O)(=O)N2CCN(C(=O)c3cccs3)CC2)c(C)c1,,"inconclusive [inhibitor, single point]"
Cc1cccc(CN2CCC(CNC(=O)Nc3ccc(F)c(Cl)c3)CC2)c1,,"inconclusive [inhibitor, single point]"
CC(NC(=O)Cc1cccs1)C(c1cccs1)N1CCN(c2ccccc2F)CC1 (stereo unspecified),,"inconclusive [inhibitor, single point]"
CCN(CC(=O)Nc1ccccc1C(F)(F)F)C(=O)c1ccc2c(c1)NC(=O)C(C)S2 (stereo unspecified),,"inconclusive [inhibitor, single point]"
COCCNc1nc2nonc2nc1NC(C)c1ccccc1Cl (stereo unspecified),,"inconclusive [inhibitor, single point]"
CCCc1nn2c(=O)cc(COC(=O)c3ccccc3NC(=O)COc3ccccc3F)nc2s1,,"inconclusive [inhibitor, full curve, poor fit]"
Clc1ccc(Nc2nnc(Cc3ccncc3)c3ccccc23)cc1,,"inconclusive [inhibitor, single point]"
O=C(NCCc1ccccc1)c1ccc(CS(=O)(=O)Cc2ccccc2F)o1,,"inconclusive [inhibitor, full curve, poor fit]"
CCOc1ccc(CNC(=O)C2Cc3ccccc3N2C(=O)CC)cc1OC (stereo unspecified),inactive: -23%,
COc1ccc(NC(=O)c2oc3ccc(S(=O)(=O)N4CCCCC4)cc3c2C)cc1,,"inconclusive [inhibitor, single point]"
COC(=O)c1cccc(N(CC(=O)NCC2CCCO2)C(=O)CCC(=O)Nc2cc(C)on2)c1 (stereo unspecified),inactive: -22.2%,
CCN(C(=O)c1ccco1)c1nc(-c2ccc(OC)cc2)cs1,,"inconclusive [inhibitor, single point]"
COc1ccc(OC)c(CNC(=O)c2ccc(Sc3ccc(C)cc3)c(N)c2)c1,,active: 20.6 µM
Cc1ccc(CNC(=S)NC2CCC(C(C)(C)C)CC2)cc1 (stereo unspecified),,active: 23.1 µM
COc1ccc(-n2nnc3c(=O)n(Cc4cc(C)ccc4C)cnc32)cc1,inconclusive: -34.5% [inhibitor],
C=CC(=O)O,inactive: -1.41%,
Cc1ccc(NCc2nc3ccccc3n2C)cc1,,"inconclusive [inhibitor, single point]"
COc1cc2c(cc1OC)CN(C(=O)[C@@H]1C[C@H](NCc3cn(C)c4ccccc34)CN1C1Cc3ccccc3C1)CC2,,"inconclusive [inhibitor, partial curve, poor fit]"
CCc1ccc(-n2nc(C)c3c(C)cc(=O)n(Cc4nc(-c5ccccc5)oc4C)c32)cc1,inactive: 19.5%,
COc1ccc(Nc2nc(C)cc(-c3cc(-c4ccccc4)on3)n2)cc1,inconclusive: -30.5% [inhibitor],
